Over roughly 33,000 sequences, “E-score (-0.5 to 0.5)” has its median near -0.056; the highest 2% begin near 0.38. Some of the results follow.
biological target: Stb4 (UniProt P50104); test: PBM E-score (8-mer binding enrichment) (E-score (-0.5 to 0.5)); higher = stronger / more preferred TF binding; most listed sequences are background and not binding sites; conditions: protein concentration: 200 nM; construct: GST-DNA-binding domain
Procedure, shortened: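 Yeast transcription factors, full-length or as DNA-binding domains, were expressed with a GST tag using PURExpress in vitro transcription/translation. At about 100-200 nM they were applied to universal all-10-mer Agilent arrays, double-stranded by primer extension on fresh or once-stripped slides. Fluorescent anti-GST detected bound protein, and masliner normalised the scans. E-scores for ungapped eight-base words, pooled with reverse complements, came from the Universal PBM Analysis Suite.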

Sequence | PBM E-score
AGAAGCCT | -0.227
CGGCCCGC | 0.326
CGGTAGAG | 0.112
AGGCTGGC | -0.234
GGTAGAAA | 0.166
GCATCTCC | 0.0843
CGCCAACC | 0.0947
ACACTCTC | -0.0168
AGCGAAAC | 0.0931
CCGCCACA | 0.0585
CTTTTTCC | 0.18
AGATATAT | -0.028
AACAACCT | -0.183
AGGGTATC | -0.0302
AACACGTC | 0.0464
AGTACGTC | -0.111
AATACTTG | -0.123
ATAGATCG | -0.0196
CACGCAGC | -0.028
CTCTAAAA | -0.00728
CAAGTTAG | 0.197
GCAGCTAC | -0.149
CCCATGCG | -0.211
TATATCAA | 0.0312
CGCCTAAA | -0.16

Sequence | PBM E-score
AGGTCAGC | -0.0261
AAGATTTA | 0.0925
ATTGATCA | -0.217
AGTGACCC | -0.0101
CGCGATTA | -0.0152
CCCAAACA | -0.274
AATATCGC | 0.0955
GCGTGTAC | -0.134
CCGTTGTA | 0.174
CCACGCGC | -0.14
GAGTTTCA | -0.112
GATTTCGC | 0.0447
CCGTATCC | 0.256
CATGTGCC | 0.0287
GTCCCGTA | 0.186
ATCCACGG | 0.109
CACACTAC | -0.108
AATTTAAC | 0.0749
ATAAACAA | 0.00747
AGTTTGTG | 0.0542
CTCATGAA | -0.0976
CTCCTTCA | -0.271
CAGGGGCA | -0.151
AGGGATAT | -0.131
GTCAAACA | -0.182

Sequence | PBM E-score
CCCATGGC | -0.0456
AATTTGCA | 0.0137
GCGTAACA | -0.0502
CGAGCGAG | 0.0797
GTAAGGAA | -0.191
CGTAATAC | 0.0192
CCGCTGGA | 0.0487
ACCCCGTG | 0.0375
ATTATTCG | 0.21
GTAGCATA | -0.0426
TTAAAAAA | 0.00045
ACTAGCAT | 0.00907
ACATATTC | -0.0459
CAGACGGA | 0.158
AAACCTGT | -0.059
AAGGCATG | -0.161
AGGCGTAA | -0.0799
CGCATACC | 0.151
CTAATAAG | -0.259
ACCTGCAT | -0.0524
ATCCTCAT | -0.249
AGGCAGTC | -0.144
GGTCCGCA | 0.00474
CCTTCTCC | -0.147
CCAACGTC | -0.0459

Sequence | PBM E-score
AACGAAGC | -0.0698
CGACACGA | 0.0172
CTCAATTA | -0.147
AACTTGCG | -0.0122
ATCAGACA | -0.168
CTAGTTAC | 0.0747
GTACATTA | -0.0356
AAGGATTA | -0.0254
AGGTTGAC | -0.0815
AAAGTTTC | -0.0988
CAGGTGAG | -0.365
GGCAATGA | -0.0484
GAGTCGCA | -0.21
CTGACTTC | 0.159
GGCCCCAC | -0.0643
CACGCTGG | -0.173
CAAGTACA | -0.144
CATCAGGG | -0.224
AGCAACCG | 0.162
CCGATCCA | 0.238
AATCGGCC | 0.191
GGTGATTA | 0.121
AACGGGCT | -0.0614
ACCCTCCA | -0.203
CACCGAAA | 0.201

Sequence | PBM E-score
ACCAATTG | -0.292
ATCTGCGG | 0.123
CTCACAGC | -0.293
AGAACCGG | 0.295
ATCCCCAG | -0.332
ACGCCTCC | -0.0077
AAATCCTA | -0.0873
ACTGAAGA | -0.0104
AGGGGGAG | -0.198
AGCCGTTG | 0.113
CCCGGCGC | 0.251
CCGTTGCC | 0.127
ATCTGAAT | -0.0562
AGAGATTA | -0.139
ACCCGACG | 0.425
GCGCCTAA | -0.116
ACTAACCA | 0.0413
CATAGGAG | -0.154
ATACCTTA | 0.0329
TAAGGCAA | -0.017
AGTGTTAG | -0.0902
TCAGGCCA | -0.0603
CCACGGCA | 0.219
AGTCATTG | -0.205
ACAGGGAG | -0.197

Sequence | PBM E-score
GGCTGTCA | -0.169
CCGAACTC | 0.374
AGTGCAGG | -0.142
AGATACCA | -0.0484
CCATGTAA | 0.0562
AGCGGAAA | 0.333
ACTCTCAT | -0.15
ACAATTTA | -0.142
AACGCACG | -0.0119
TCACACAA | -0.195
GAATCTGA | -0.0575
CTCCAGGC | -0.205
CTTGCGGC | 0.0761
AATCCCGG | 0.318
GGCAGCAA | 0.00856
GCGAACGA | -0.125
CTTCTGCA | -0.0971
ATGCGACA | -0.121
ACACCCTC | 0.00446
GGCCGGCC | 0.199
CATGGTGG | -0.107
GCAGACCC | -0.0129
CGTATTCC | 0.153
AATCTTAC | 0.00018
AGTCCATA | -0.142

Sequence | PBM E-score
CGGCAGCC | 0.286
GATCCGAC | 0.434
ACTCGGCT | 0.414
AGTCTTAC | -0.245
ACGTCCGA | 0.201
AGCTTGCA | -0.254
AAGTTTGA | 0.0739
CACGAGCC | 0
AATCGTGT | 0.0447
AAGATGTC | -0.197
AAGCACAT | 0.00432
CTTTCCAA | 0.125
AACTCGGA | 0.426
AGACGTCA | -0.282
CAGTATTA | -0.0582
ACGAGAAT | -0.0391
CGCACTAG | -0.0812
CTATCCCC | -0.0734
AATTGACC | -0.0708
CAGGACGA | -0.172
AGGTTCCC | -0.0987
CGCTCTAG | -0.153

— the supplement of paper PMC3334620
